Measured values from the supplement of paper PMC3334620.
The full ranking holds about 33,000 sequences; the median of “E-score (-0.5 to 0.5)” is about -0.016, and the highest 2% start at about 0.32. This is one part of the list.

What follows are sequences tested against T1, Stp1 (UniProt B3LFK1) (assay: PBM E-score (8-mer binding enrichment) (E-score (-0.5 to 0.5)); higher = stronger / more preferred TF binding; most listed sequences are background and not binding sites). Conditions: protein concentration: 200 nM; construct: GST-full length.
T1 sequence: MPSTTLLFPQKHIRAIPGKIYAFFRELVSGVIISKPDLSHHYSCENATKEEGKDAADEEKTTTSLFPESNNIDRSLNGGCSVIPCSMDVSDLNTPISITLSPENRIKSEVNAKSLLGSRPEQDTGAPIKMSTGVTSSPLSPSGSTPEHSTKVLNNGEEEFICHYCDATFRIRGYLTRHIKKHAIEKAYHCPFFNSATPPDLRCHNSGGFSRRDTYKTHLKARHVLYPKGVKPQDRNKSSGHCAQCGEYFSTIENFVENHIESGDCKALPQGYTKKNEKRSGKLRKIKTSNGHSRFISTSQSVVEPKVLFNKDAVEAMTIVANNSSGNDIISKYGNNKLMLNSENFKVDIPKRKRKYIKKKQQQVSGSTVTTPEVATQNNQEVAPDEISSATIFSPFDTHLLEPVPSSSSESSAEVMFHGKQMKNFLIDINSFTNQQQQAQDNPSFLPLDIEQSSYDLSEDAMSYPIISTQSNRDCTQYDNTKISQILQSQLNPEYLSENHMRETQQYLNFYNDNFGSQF
How it was run: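 Universal all-10-mer Agilent arrays, fresh or stripped once, were converted to double-stranded form by primer extension. GST-tagged yeast transcription factors from PURExpress in vitro transcription/translation, full-length or DNA-binding domain only, were applied at about 100-200 nM and detected with fluorescent anti-GST. After masliner normalisation, the Universal PBM Analysis Suite scored each ungapped eight-base word together with its reverse complement by E-score.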

Sequence | PBM E-score
CGCAGACG | 0.164
AGAAGCCC | -0.101
GGGCCCCA | -0.319
CATAGGTC | -0.12
GTGTTGAA | -0.113
AAGGTCCA | -0.213
GACCGATC | -0.164
ATTGAATG | 0.0897
ACTATGCC | 0.285
ATTACTCA | 0.0321
CCAAATGC | -0.0633
AGTACTAT | 0.029
ACAATGTC | -0.0146
AAAAGTGG | 0.125
CCCTGCGG | -0.0552
AACACTCT | 0.00778
AGCCAGTG | -0.177
ATCCGCCG | 0.294
AGTTGTTA | 0.0604
AAGCGTGT | -0.101
CGCTATAA | -0.0139
TCGGGTCA | -0.0927
TCTTAACA | 0.0972
AAACGCTT | -0.0887
CACTTGAA | 0.164

Sequence | PBM E-score
CGCATAGA | 0.104
AATACATT | 0.0399
CGAGACGC | 0.0377
AGGAGCAT | 0.0289
AGTTAACC | -0.1
AGATAAGA | 0.0923
CTTACAGA | 0.0714
AGCGCAGC | -0.112
CAATGCAG | 0.12
CGTGACTA | -0.1
AATACCGA | -0.0374
ACTCTGAA | 0.114
CTAATCGA | 0.0651
CAGTCAAA | 0.0898
ACAGGCAC | -0.047
ATAGAGAA | 0.105
CCCGATGA | 0.0203
TATGGCGA | 0.0899
ATGATCTG | 0.0371
AGGGACCT | -0.219
ACAACTGC | -0.0742
AAATACAT | -0.0457
ACATCAAT | 0.115
CAAACCAC | 0.108
GAAGTTAA | -0.0765

Sequence | PBM E-score
CCAAAGTA | -0.0727
AGGCTGAG | 0.0428
CCGGGAGC | -0.31
CGACAAGC | -0.0737
CAACATCC | -0.053
CGCTGTGC | 0.0982
GAAAAGGA | -0.0126
ATAGCCAG | -0.124
GGACAAAC | -0.0758
ATCAATGC | 0.135
AACATCCA | -0.0261
AATAACAC | 0.129
GACCAAGC | -0.0999
CCACCAAG | -0.24
AAACCCAG | -0.183
ACATCAAC | 0.0681
ACGGGTCA | -0.225
ATGGAAAA | -0.0124
ACCTCCAA | -0.155
GAGCTAAA | -0.289
TCCTGCCA | -0.121
AAATTGAT | 0.177
ATTTGTGA | 0.0444
CCTGATCG | 0.0158
ATCCCATC | -0.228

Sequence | PBM E-score
ATTTGGGA | -0.105
ACGTGCCT | 0.278
ATCTTCGG | 0.0436
GTTACAAC | 0.156
AAACTAAT | 0.204
AATCGAAC | -0.00853
AGCCTGCG | -0.245
GTCCCCAC | -0.31
GAGTGGTA | -0.089
ATGTCAAT | 0.171
GTATCAGA | 0.0916
GGACTGCA | -0.229
CAGTTGTC | -0.136
TATAGGAA | -0.0116
GACTCACC | -0.254
GCCACTCA | 0.181
CTTCGAAC | 0.115
CGGACCCC | -0.169
ACATCAGC | -0.00635
CTTGGGTA | 0.0303
ATCGGCGG | 0.262
GACTAGAA | -0.146
ATATTAGG | 0.0795
ACGTTCAA | -0.0326
GGATAACA | 0.017

Sequence | PBM E-score
AGCATGTC | -0.123
ATCGACAA | 0.0613
ATTGCAAT | 0.206
AGGATGGA | -0.172
AGTACCCC | -0.194
GTAGCTCA | -0.0794
TAACGACA | 0.0893
CCCTAGAG | -0.0947
GCCTATCC | -0.0607
GATTCGGC | 0.175
ATCAAAGA | 0.0425
CAAACCTG | -0.00919
GGAGAACA | -0.065
CTAGCAAG | -0.0668
GAAGGAGA | -0.155
ATAACTGG | -0.103
AAATCCAA | 0.0749
CAGAGAGA | -0.235
CAGGGTCA | -0.33
CACGTATC | 0.106
CTGAGCGA | 0.0209
AGGGCGCA | 0.205
GAGGCCTA | -0.162
ATGGAGGA | 0.032
ACAATCCG | -0.0493

Sequence | PBM E-score
GGTAAAAC | -0.0626
CGGTTTCA | -0.0573
CCTTGTGA | 0.134
CGCTGCCC | -0.102
CACAACGA | 0.107
CAAGGTGG | -0.152
AATTATTC | 0.135
CGGGGTAG | -0.281
CAGTGCCG | 0.453
GCAGATTA | 0.0459
AAATCGCA | 0.0877
AGCTAAGG | -0.145
ACCACCAC | -0.225
AGAAATTC | 0.0496
AGTCTGAA | -0.0532
ACGCCTTG | 0.348
ATAGTCTC | 0.157
AAAACAGT | 0.173
ACAGCCCG | -0.3
AGTACGGA | 0.154
ACTCAGAC | 0.0225
AAAGCTTT | 0.0507
AATCTCTG | -0.0845
CAATAAAA | 0.106
CCGGCTGC | 0.0166

Sequence | PBM E-score
CTGATGGA | -0.133
AGAGAGAA | -0.198
AAAAGGCC | 0.174
AACTCCGA | -0.201
ACTAACAG | 0.0277
AGTGTTAA | 0.0806
CCAATTAA | -0.0018
AAAAACGG | 0.217
GAGTCAGA | -0.0166
AGAGGAAA | 0.0686
CTGTAGAA | -0.00291
ACTGAGCC | 0.081
AGGACAAT | 0.0496
ATGCATTA | 0.00806
GATAGCAA | 0.0965
CCGTTATA | -0.00614
ACACAGAG | -0.0898
AAGGCGGC | 0.319
AGGGCAAT | 0.156
CCAGTATC | -0.22
AAGGAAAA | 0.142
GAGTGTAA | -0.192
GAGCTCGC | -0.0438
AGGGAACC | -0.0405
CGATCCTA | -0.163

Sequence | PBM E-score
ACAACGCG | 0.106
CCCGTGCG | 0.332
GGCTAGCA | -0.097
ACCAGATC | -0.0588
ATAATCAT | 0.246
CATGACCA | -0.117
CTATGCGA | -0.258
CCTTGAGA | -0.271
AACTTAAT | 0.111
ACATAGTA | 0.166
AACATATG | 0.0378
AGGGTAAA | -0.0518
CCAATCAA | 0.049
GGTGTCGA | -0.249
CTGAGGAC | -0.184
ACATCTGC | -0.0829
ATCGAACG | 0.141
AAATATGA | 0.0754
ATGACGCC | 0.2
ACCTACCT | -0.185
AAGCACCC | -0.224
CACGGTTC | -0.0181
CCGAATTA | -0.0683
GAATGGGA | -0.228
ATATCTTC | 0.102

Sequence | PBM E-score
CTTGCCCC | -0.165
GATCGTCC | -0.0918
ACTACGTC | -0.116
GCGCAGTA | 0.0213
AGAACAGG | -0.0511
CATAATCC | -0.155
TTGTTAAA | -0.116
TACGAACA | 0.159
CAAATTGA | -0.13
AAGGTGAG | -0.0213
AAGCCTCT | -0.236
AAGCTGCA | 0.0151
ACGCTAGT | -0.139
CGGTGGCC | -0.0772
CGGCAGGA | 0.0983
GAGGCTAA | 0.101
AAAAACTG | -0.166
CCCGCAAC | 0.097
TAGATGAA | 0.123
